The other results are listed elsewhere or left out. Repeats are few or missing, and single values can be far off.
Experiments:
Assay in all cases: cell count relative to DMSO control; melanoma cells; higher = more viable cells
Details in all cases: library dose: low library concentration; 72 h
MZ2-MEL = test system: MZ2-MEL
MeWo = test system: MeWo
RPMI7951 = test system: RPMI7951
RVH-421 = test system: RVH-421
SkMel28 = test system: SkMel28
SkMel30 = test system: SkMel30
SkMel5 = test system: SkMel5
UACC257 = test system: UACC257
UACC62 = test system: UACC62
SkMel2 = test system: SkMel2
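Further: cell number obtained by counting DAPI-stained nuclei in high-throughput microscope images with image analysis software, screen run in 1,536-well plates.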

Compound | cell count (MZ2-MEL) [%] | cell count (MeWo) [%] | cell count (RPMI7951) [%] | cell count (RVH-421) [%] | cell count (SkMel28) [%] | cell count (SkMel30) [%] | cell count (SkMel5) [%] | cell count (UACC257) [%] | cell count (UACC62) [%] | cell count (SkMel2) [%]
Cn1c(Nc2ccc(C(F)(F)F)cc2)nc2cc(Oc3ccnc(-c4ncc(C(F)(F)F)[nH]4)c3)ccc21 + COc1cc(N2CCC(N3CCN(C)CC3)CC2)ccc1Nc1ncc(Cl)c(Nc2ccccc2S(=O)(=O)C(C)C)n1 [NVP-TAE684] (first compound 0.08 µM, partner dose 0.08 µM) | 85 | 56.3 | 77.8 | 69.9 | 63.4 | 47.8 | 72.3 | 25.4 | 49.3 | 
Nc1cccc2c1CN(C1CCC(=O)NC1=O)C2=O (configuration not stated) [lenalidomide] + O=C(O)C(=O)Nc1sc2c(c1C(=O)O)CCNC2 [TCS401] (first compound 1 µM, partner dose 1.66667 µM) | 100 | 108 | 99.7 | 114 | 97.3 | 107 | 101 | 93.7 | 111 | 
O=C(CCCCCCC(=O)Nc1ccccc1)NO [vorinostat] + Oc1cc(-c2nc(-c3ccccc3)[nH]c2-c2ccncc2)ccc1Cl [L779450] (first compound 0.08 µM, partner dose 0.2 µM) | 81.8 | 104 | 117 | 89.4 | 76.1 | 86.8 | 92.8 | 102 | 75.3 | 
O=C(CCCCCCC(=O)Nc1ccccc1)NO [vorinostat] + Cn1cc(/C=C2\C(=O)Nc3cccnc32)c2ccccc21 [GW441756] (first compound 0.08 µM, partner dose 0.4 µM) | 101 | 102 | 95.8 | 144 | 84.7 | 108 | 87.5 | 94.3 | 91.2 | 
Cn1c(Nc2ccc(C(F)(F)F)cc2)nc2cc(Oc3ccnc(-c4ncc(C(F)(F)F)[nH]4)c3)ccc21 + CC(C)CCN1c2nc(Nc3cc(F)c(O)c(F)c3)ncc2N(C)C(=O)C1C [BID1870] (first compound 0.08 µM, partner dose 0.2 µM) | 79.3 | 67 | 58.2 | 61.2 | 43.4 | 55.5 | 70.4 | 51.8 | 42.3 | 
O=C(CCCCCCC(=O)Nc1ccccc1)NO [vorinostat] + O=C(O)C(=O)Nc1sc2c(c1C(=O)O)CCNC2 [TCS401] (first compound 0.08 µM, partner dose 1.66667 µM) | 92.6 | 103 | 84.2 | 114 | 68.8 | 97.5 | 89.5 | 86.8 | 72.5 | 
Cn1c(Nc2ccc(C(F)(F)F)cc2)nc2cc(Oc3ccnc(-c4ncc(C(F)(F)F)[nH]4)c3)ccc21 + Oc1nc(-c2ccc(C(F)(F)F)cc2)nc2c1CSCC2 [XAV939] (first compound 0.08 µM, partner dose 2 µM) | 81.3 | 63.8 | 65.4 | 69.5 | 47.4 | 60.3 | 78.5 | 36.2 | 47.7 | 
COCC[n+]1c2c(n(Cc3cnccn3)c1C)C(=O)c1ccccc1C2=O + CCCCCCCCCCCC1=C(O)C(=O)C=C(O)C1=O [Embelin] (first compound 0.0004 µM, partner dose 1.2 µM) | 61.2 | 95.1 | 91.2 | 78.8 | 112 | 83.8 | 71 | 102 | 93.8 | 
Nc1cccc2c1CN(C1CCC(=O)NC1=O)C2=O (configuration not stated) [lenalidomide] + COc1ccc(-c2ccc3c(N4CCOCC4)nc(N4C[C@@H](C)O[C@@H](C)C4)nc3n2)cc1CO [KU0063794] (first compound 1 µM, partner dose 0.02 µM) | 98.3 | 82.9 | 91.3 | 85.8 | 101 | 117 | 105 | 81.6 | 90.7 | 
Nc1cccc2c1CN(C1CCC(=O)NC1=O)C2=O (configuration not stated) [lenalidomide] + Oc1nc(-c2ccc(C(F)(F)F)cc2)nc2c1CSCC2 [XAV939] (first compound 1 µM, partner dose 2 µM) | 103 | 104 | 105 | 87.4 | 97.5 | 112 | 87.2 | 69.8 | 104 | 
Cn1c(Nc2ccc(C(F)(F)F)cc2)nc2cc(Oc3ccnc(-c4ncc(C(F)(F)F)[nH]4)c3)ccc21 + CCCCCCCCCCCC1=C(O)C(=O)C=C(O)C1=O [Embelin] (first compound 0.08 µM, partner dose 1.2 µM) | 83.7 | 78.9 | 66.1 | 66.8 | 47.6 | 56.9 | 78.8 | 61.1 | 54.4 | 
Nc1cccc2c1CN(C1CCC(=O)NC1=O)C2=O (configuration not stated) [lenalidomide] + O=c1cc(-c2cccc3c2Sc2ccccc2S3)oc(N2CCOCC2)c1 [KU55933] (first compound 1 µM, partner dose 1 µM) | 104 | 103 | 110 | 130 | 87.1 | 81.7 | 91.5 | 111 | 105 | 
O=C(CCCCCCC(=O)Nc1ccccc1)NO [vorinostat] + O=c1cc(-c2cccc3c2Sc2ccccc2S3)oc(N2CCOCC2)c1 [KU55933] (first compound 0.08 µM, partner dose 1 µM) | 98.7 | 87.6 | 94.3 | 118 | 79.8 | 115 | 97.6 | 94.2 | 96.2 | 
O=C(CCCCCCC(=O)Nc1ccccc1)NO [vorinostat] + CCCCCCCCCCCC1=C(O)C(=O)C=C(O)C1=O [Embelin] (first compound 0.08 µM, partner dose 1.2 µM) | 93.3 | 95.8 | 87.7 | 115 | 116 | 104 | 79.3 | 77.7 | 106 | 
Nc1cccc2c1CN(C1CCC(=O)NC1=O)C2=O (configuration not stated) [lenalidomide] + COc1cc2c(Oc3ccc4[nH]c(C)cc4c3F)ncnc2cc1OCCCN1CCCC1 [cediranib] (first compound 1 µM, partner dose 0.4 µM) |  | 103 | 96.5 | 90.6 | 114 | 117 | 102 | 106 | 93.7 | 
COCC[n+]1c2c(n(Cc3cnccn3)c1C)C(=O)c1ccccc1C2=O + Cc1cc([N+](=O)[O-])ccc1NS(=O)(=O)c1cc(Cl)ccc1Cl [FH535] (first compound 0.0004 µM, partner dose 1 µM) | 51.9 | 87.6 | 95.7 | 104 | 87.9 | 81.4 | 77.3 | 74 | 78.6 | 
C#Cc1cccc(Nc2ncnc3cc(OCCOC)c(OCCOC)cc23)c1 [erlotinib] + COC(=O)c1sccc1S(=O)(=O)Nc1ccc(Nc2ccccc2)cc1OC [GSK0660] (first compound 0.8 µM, partner dose 1 µM) | 93.3 | 96.9 | 92.4 | 128 | 107 | 111 | 113 | 84.1 | 98.8 | 
O=C(CCCCCCC(=O)Nc1ccccc1)NO [vorinostat] + COc1ccc2c(c1)CCC1C2CCC2(C)C(NCCCCCCN3C(=O)C=CC3=O)CCC12 [U73122] (first compound 0.08 µM, partner dose 0.4 µM) | 101 | 100 | 77.7 | 96.2 | 95 | 98.6 | 69.2 | 79.7 | 81.9 | 
O=C(CCCCCCC(=O)Nc1ccccc1)NO [vorinostat] + COc1cc(N2CCC(N3CCN(C)CC3)CC2)ccc1Nc1ncc(Cl)c(Nc2ccccc2S(=O)(=O)C(C)C)n1 [NVP-TAE684] (first compound 0.08 µM, partner dose 0.08 µM) | 101 | 99.6 | 102 | 119 | 86 | 77.5 | 86.1 | 91 | 91.9 | 
C#Cc1cccc(Nc2ncnc3cc(OCCOC)c(OCCOC)cc23)c1 [erlotinib] + Cn1cc(/C=C2\C(=O)Nc3cccnc32)c2ccccc21 [GW441756] (first compound 0.8 µM, partner dose 0.4 µM) | 88 | 91.6 | 92.2 | 99.1 | 86 | 97.9 | 84.2 | 80 | 94.7 | 
Nc1cccc2c1CN(C1CCC(=O)NC1=O)C2=O (configuration not stated) [lenalidomide] + COC(=O)c1sccc1S(=O)(=O)Nc1ccc(Nc2ccccc2)cc1OC [GSK0660] (first compound 1 µM, partner dose 1 µM) | 97 | 91.8 | 102 | 105 | 79 | 120 | 80.4 | 85.3 | 84.4 | 
C#Cc1cccc(Nc2ncnc3cc(OCCOC)c(OCCOC)cc23)c1 [erlotinib] + O=C(O)C(=O)Nc1sc2c(c1C(=O)O)CCNC2 [TCS401] (first compound 0.8 µM, partner dose 1.66667 µM) | 90.2 | 103 | 93.9 | 89.7 | 89.8 | 93.1 | 88.2 | 81.5 | 108 | 
Clc1ccc(Nc2nnc(Cc3ccncc3)c3ccccc23)cc1 [vatalanib] + COc1cc(Nc2ncc(F)c(Nc3ccc4c(n3)NC(=O)C(C)(C)O4)n2)cc(OC)c1OC [Tamatinib] (first compound 2 µM, partner dose 0.4 µM) |  | 82.7 | 88.6 | 81.2 | 91.4 | 65.8 | 100 | 89.8 | 92 | 93
Nc1cccc2c1CN(C1CCC(=O)NC1=O)C2=O (configuration not stated) [lenalidomide] + Oc1cc(-c2nc(-c3ccccc3)[nH]c2-c2ccncc2)ccc1Cl [L779450] (first compound 1 µM, partner dose 0.2 µM) |  | 91.2 | 91.3 | 90 | 85.2 | 92.6 | 101 | 72 | 70.8 | 
COCC[n+]1c2c(n(Cc3cnccn3)c1C)C(=O)c1ccccc1C2=O + COC(=O)c1sccc1S(=O)(=O)Nc1ccc(Nc2ccccc2)cc1OC [GSK0660] (first compound 0.0004 µM, partner dose 1 µM) | 50.7 | 77.8 | 65.6 | 80 | 90.2 | 70 | 71.8 | 96 | 83.3 | 
Nc1cccc2c1CN(C1CCC(=O)NC1=O)C2=O (configuration not stated) [lenalidomide] + O=C(Nc1ccccc1)c1cc([N+](=O)[O-])ccc1Cl [GW9662] (first compound 1 µM, partner dose 2 µM) | 100 | 94.9 | 99.2 | 119 | 75.6 | 106 | 91.8 | 79.6 | 83.9 | 
